Assay results taken from a collection of fitness landscapes (doi:10.1126/science.1257360).
This is one part of the list.

B1: PhoQ; a variant is named by its letters at X, in order, P23837 (parent)
chain: MKKLLRLFFPLSLRVRFLLATAAVVLVLSLAYGMVALIGYSVSFDKTTFRLLRGESNLFYTLAKWENNKLHVELPENIDKQSPTMTLIYDENGQLLWAQRDVPWLMKMIQPDWLKSNGFHEIEADVNDTSLLLSGDHSIQQQLQEVREDDDDAEMTHSVAVNVYPATSRMPKLTIVVVDTIPVELKSSYMVWSWFIYVLSANLLLVIPLLWVAAWWSLRPIEALAKEVRELEEHNRELLNPATTRELTSLVRNLNRLLKSERERYDKYRTTLTDLTHSLKTPLXXLQXXLRSLRSEKMSVSDAEPVMLEQISRISQQIGYYLHRASMRGGTLLSRELHPVAPLLDNLTSALNKVYQRKGVNISLDISPEISFVGEQNDFVEVMGNVLDNACKYCLEFVEISARQTDEHLYIVVEDDGPGIPLSKREVIFDRGQRVDTLRPGQGVGLAVAREITEQYEGKIVAGESMLGGARMEVIFGRQHSAPKDE

Variants of: B1
Test: enrichment ratio after two sorts for PhoP signalling (ratio (wild type AVST 3.29)); higher = more functional
Conditions: with PhoP (E. coli)

Variant | enrichment ratio
ENFN | ≤ 0.25
RPTW | ≤ 0.25
WCPS | ≤ 0.25
QNRI | ≤ 0.25
QGFH | 4.44
MKRL | ≤ 0.25
EPFY | ≤ 0.25
RFKH | ≤ 0.25
AWFT | ≤ 0.25
SAKR | ≤ 0.25
RWMT | ≤ 0.25
VFDV | ≤ 0.25
IWHI | ≤ 0.25
IFYF | ≤ 0.25
QKLN | ≤ 0.25
GRGI | ≤ 0.25
LRYV | ≤ 0.25
PQYG | ≤ 0.25
PMGC | ≤ 0.25
TTFI | ≤ 0.25
QMGY | 2.49
PVLN | ≤ 0.25
YIDA | ≤ 0.25
DVRT | ≤ 0.25

Variant | enrichment ratio
LYQC | ≤ 0.25
NIAF | ≤ 0.25
GWFT | ≤ 0.25
IWWA | ≤ 0.25
TVMF | ≤ 0.25
LSPL | ≤ 0.25
IQLS | ≤ 0.25
ECPE | ≤ 0.25
PAKI | ≤ 0.25
INCS | ≤ 0.25
QYVW | ≤ 0.25
FNIH | ≤ 0.25
IYKI | ≤ 0.25
HIDL | ≤ 0.25
TYLH | 0.495
SQHH | ≤ 0.25
HNPT | ≤ 0.25
NTYE | ≤ 0.25
PCKT | ≤ 0.25
WDIV | ≤ 0.25
MCWC | ≤ 0.25
FMTS | ≤ 0.25
FYSC | ≤ 0.25
NWGI | ≤ 0.25

Variant | enrichment ratio
HPTA | ≤ 0.25
LVPF | ≤ 0.25
PGGF | ≤ 0.25
ESNG | ≤ 0.25
LDET | ≤ 0.25
ICAP | ≤ 0.25
YNEI | ≤ 0.25
QQAP | ≤ 0.25
WHSF | ≤ 0.25
ISGM | ≤ 0.25
RFKC | ≤ 0.25
ADEP | ≤ 0.25
DGSN | ≤ 0.25
HKYR | ≤ 0.25
FSCS | ≤ 0.25
QLNN | ≤ 0.25
MMYW | ≤ 0.25
KMRL | ≤ 0.25
DACY | ≤ 0.25
GTTM | 4.35
GYYA | ≤ 0.25
HLMS | ≤ 0.25
QYII | ≤ 0.25
QEDH | ≤ 0.25

Variant | enrichment ratio
SHQY | ≤ 0.25
IPRW | ≤ 0.25
LVLI | ≤ 0.25
QAWV | 20.2
PDKS | ≤ 0.25
DCYS | ≤ 0.25
IPDG | ≤ 0.25
LESQ | ≤ 0.25
GHAT | ≤ 0.25
NSGY | ≤ 0.25
SFMD | ≤ 0.25
RWVS | ≤ 0.25
NELP | ≤ 0.25
YWKW | ≤ 0.25
PHKK | ≤ 0.25
GDVP | ≤ 0.25
SNMF | 19.4
NMGH | ≤ 0.25
CLEP | ≤ 0.25
IYPA | ≤ 0.25
HASQ | ≤ 0.25
FLNQ | ≤ 0.25
REQI | ≤ 0.25
TFYQ | ≤ 0.25

Variant | enrichment ratio
MIHW | ≤ 0.25
HDMD | ≤ 0.25
NNEA | ≤ 0.25
NKHA | ≤ 0.25
HNCV | ≤ 0.25
KGDP | ≤ 0.25
LEAQ | 1.03
LEHQ | ≤ 0.25
DGKP | ≤ 0.25
KTHW | ≤ 0.25
YQYW | ≤ 0.25
EMRT | ≤ 0.25
NQRK | ≤ 0.25
AEEC | ≤ 0.25
VQRK | ≤ 0.25
FREQ | ≤ 0.25
RFEY | ≤ 0.25
GRYN | ≤ 0.25
LPAE | ≤ 0.25
ESFL | ≤ 0.25
YMST | 0.652
IHKR | ≤ 0.25
VGIR | ≤ 0.25
GKQT | ≤ 0.25

Variant | enrichment ratio
WEVI | ≤ 0.25
KAIM | ≤ 0.25
GHSV | ≤ 0.25
RQDG | ≤ 0.25
ANCC | 0.324
HSTF | ≤ 0.25
PNFA | ≤ 0.25
GGFA | ≤ 0.25
LEYI | 8.13
LLID | ≤ 0.25
TDHP | ≤ 0.25
EVYR | ≤ 0.25
VFKG | ≤ 0.25
QDNR | ≤ 0.25
DSHY | ≤ 0.25
VYVK | ≤ 0.25
FSRD | ≤ 0.25
QGDD | ≤ 0.25
TKGL | 0.899
VSSC | ≤ 0.25
GFSF | ≤ 0.25
ACLT | 11.7
VDCM | ≤ 0.25
RENV | ≤ 0.25

Variant | enrichment ratio
RTCI | ≤ 0.25
FFAT | ≤ 0.25
PHTD | ≤ 0.25
SCVF | 1.3
ANCD | 0.285
KDWH | ≤ 0.25
SQNY | 3.03
PWFV | ≤ 0.25
PSVC | ≤ 0.25
WMWV | ≤ 0.25
INWH | ≤ 0.25
GMID | ≤ 0.25
RFGP | ≤ 0.25
HRDF | ≤ 0.25
RISW | ≤ 0.25
EDCA | ≤ 0.25
STLI | 12.4
AFHM | ≤ 0.25
MKTA | ≤ 0.25
LFMR | ≤ 0.25
FNKI | ≤ 0.25
SIKT | ≤ 0.25
YLKI | ≤ 0.25
IRNN | ≤ 0.25

Variant | enrichment ratio
SVKK | ≤ 0.25
FNYG | ≤ 0.25
EAGT | ≤ 0.25
MMPC | ≤ 0.25
VNSD | ≤ 0.25
TLSG | 9.01
TICN | 6.65
PCLH | ≤ 0.25
GDVW | ≤ 0.25
TLEQ | ≤ 0.25
VKNY | 7.12
WVWP | ≤ 0.25
NDFR | 2.54
VTRA | ≤ 0.25
HAII | ≤ 0.25
DRVF | ≤ 0.25
SVNT | ≤ 0.25
FKDI | ≤ 0.25
KEAT | ≤ 0.25
VMFP | ≤ 0.25
WCNK | ≤ 0.25
RLMG | ≤ 0.25
QTNH | 9.19
NWSS | ≤ 0.25

Variant | enrichment ratio
MFHR | ≤ 0.25
TCYK | 3.36
VVAL | ≤ 0.25
RMYW | ≤ 0.25
CLAF | ≤ 0.25
GINP | ≤ 0.25
HYDW | ≤ 0.25
TTCN | 11.9
RCCN | ≤ 0.25
LNMI | 2.54
RANF | ≤ 0.25
NMKN | ≤ 0.25
LHTV | ≤ 0.25
WMTE | ≤ 0.25
MLKA | ≤ 0.25
DKNC | ≤ 0.25
DCIN | ≤ 0.25
FKQS | ≤ 0.25
MTMK | ≤ 0.25
AMQL | 10.2
ELHM | ≤ 0.25
MPMW | ≤ 0.25
WVDP | ≤ 0.25
LQAA | ≤ 0.25

Variant | enrichment ratio
VWQH | ≤ 0.25
VGFR | ≤ 0.25
ACLD | ≤ 0.25
TNIH | ≤ 0.25
RVHY | ≤ 0.25
FPMR | ≤ 0.25
DEGD | ≤ 0.25
KAFT | ≤ 0.25
FYKE | ≤ 0.25
YKLH | ≤ 0.25
ACVW | ≤ 0.25
IHQC | ≤ 0.25
TRDK | ≤ 0.25
ESRF | ≤ 0.25
LMRP | ≤ 0.25
VMKE | ≤ 0.25
EFQA | ≤ 0.25
KMRH | ≤ 0.25
HHIW | ≤ 0.25
TIQW | ≤ 0.25
KRQC | ≤ 0.25
HQWF | ≤ 0.25
MSKK | ≤ 0.25
YKGW | ≤ 0.25

Variant | enrichment ratio
TPYP | ≤ 0.25
SYKM | ≤ 0.25
ENGD | ≤ 0.25
SQGL | 2.25
NMII | ≤ 0.25
RNSE | ≤ 0.25
PDDF | ≤ 0.25
VHLG | ≤ 0.25
PAWQ | ≤ 0.25
NGKL | ≤ 0.25
IRAI | ≤ 0.25
ACRR | ≤ 0.25
DSNI | ≤ 0.25
FEAV | 0.96
TDRR | ≤ 0.25
QDMI | ≤ 0.25
YMWV | ≤ 0.25
KFKD | ≤ 0.25
HGNP | ≤ 0.25
DERK | ≤ 0.25
MTKF | ≤ 0.25
QLQC | ≤ 0.25
QKFP | ≤ 0.25
TIFV | ≤ 0.25

Variant | enrichment ratio
VVWS | ≤ 0.25
RTYR | ≤ 0.25
RQQH | ≤ 0.25
DCCA | ≤ 0.25
ALQY | ≤ 0.25
NRRK | ≤ 0.25
LYRT | ≤ 0.25
STWE | ≤ 0.25
VVKA | ≤ 0.25
AEQW | ≤ 0.25
GNFP | ≤ 0.25
DMCF | ≤ 0.25
EVWD | ≤ 0.25
ATVY | 5.36
MKKD | ≤ 0.25
PQFH | ≤ 0.25
YLLA | ≤ 0.25
GRTF | 0.656
WAGP | ≤ 0.25
DSKY | ≤ 0.25
AAKG | ≤ 0.25
VESC | 5.05
WPGV | ≤ 0.25
GNTC | 1.23

Variant | enrichment ratio
FSEG | ≤ 0.25
INDC | ≤ 0.25
SCER | ≤ 0.25
FQWD | ≤ 0.25
WYCA | ≤ 0.25
VSAR | ≤ 0.25
RGIL | ≤ 0.25
QPQL | ≤ 0.25
RWLA | ≤ 0.25
GNPV | ≤ 0.25
IKYR | ≤ 0.25
VYGV | ≤ 0.25
ICYA | ≤ 0.25
TFCQ | ≤ 0.25
MNRI | ≤ 0.25
DRLM | ≤ 0.25
NCPW | ≤ 0.25
AWYL | ≤ 0.25
